# In all, about 240,000 compounds went through this assay and about 20 (0.008%) were called active. The inconclusive results got no clear call from the source; some entries with a clear call stand among them for comparison. The call rests on the fitted dose curve; in most records, active means well fitted inhibition curve with a large enough effect; inconclusive means small, poorly fitted or top-dose-only effect, or effect the other way; inactive means flat fitted curve, though single readings scatter. Potencies of inconclusive entries are left out as doubtful fits.
# Target: Alpha-galactosidase A (Homo sapiens) (UniProt P06280)
# Sequence of UniProt P06280 (P06280 whole entry, looked up): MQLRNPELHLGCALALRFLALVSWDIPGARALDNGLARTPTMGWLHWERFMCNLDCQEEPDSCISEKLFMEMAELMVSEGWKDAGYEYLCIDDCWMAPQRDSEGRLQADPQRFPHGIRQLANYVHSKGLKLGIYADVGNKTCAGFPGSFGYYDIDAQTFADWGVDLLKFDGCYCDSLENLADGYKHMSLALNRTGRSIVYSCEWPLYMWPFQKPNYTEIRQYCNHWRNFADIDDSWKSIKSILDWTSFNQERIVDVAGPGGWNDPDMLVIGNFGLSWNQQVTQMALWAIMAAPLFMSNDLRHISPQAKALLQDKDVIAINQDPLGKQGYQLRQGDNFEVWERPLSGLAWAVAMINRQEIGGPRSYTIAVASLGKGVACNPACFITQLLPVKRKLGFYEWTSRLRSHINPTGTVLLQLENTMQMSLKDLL
# Experiment: qHTS Assay for Inhibitors and Activators of Human alpha-Galactosidase From Spleen Homogenate;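 on activity change, negative = inhibition: 0% = enzyme with vehicle and -100% = no enzyme basal signal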
# Conditions: 4MU-alpha-Gal fluorescence, 40 min; activity change, negative = inhibition: at 80 µM (top of the series)
# Outline: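 Spleen homogenate 1 ug + cpd (titration) + 4-MU-alpha-D-galactopyranoside 1 mM; 37C 40 min; 50 mM citrate/phosphate pH 5.0, 0.01% Tween-20; stop pH 10; fluorescence 365/440; AC50 via Hill.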
# Potency means the concentration at half of the fitted maximal effect; tags describe the fitted curve by direction and shape.
SMILES,"activity change, negative = inhibition",Potency
Cc1cc(=O)oc2ccc(OCC(=O)N3CCc4ccccc43)cc12,inactive: 1.68%,
CN(C)Cc1c(O)c(Cl)cc2c3c(c(=O)oc12)CCCC3,,"inconclusive [activator, partial curve]"
CCCOc1ccc(N2C(=O)CC(N3CCOCC3)C2=O)cc1 (stereo unspecified),inactive: -0.0418%,
COc1ccc2c(c1)c1ncn(CCCN3CCOCC3)c(=O)c1n2C,,"inconclusive [activator, partial curve]"
CC(=O)Nc1nc2ccc(-c3nc4ccccc4o3)cc2s1,,"inconclusive [activator, single point]"
CCOC(=O)n1c(=O)oc2cc(S(=O)(=O)N3CCCCC3)ccc21,inactive: -7.96%,
CC1=NNC(=O)C1CC(=O)N/N=C/C(Br)=C/c1ccccc1 (stereo unspecified),inactive: 13.6%,
C[C@H]1C(c2ccccc2)=NN(c2ccccc2)[C@@H]1CO,,"inconclusive [activator, partial curve]"
CCOC(=O)c1cc(-c2ccc(OC)cc2)nc2c1c(C)nn2CCC#N,,"inconclusive [activator, partial curve]"
Cc1ccc(NC(=O)NNC(=O)c2cccs2)cc1,inactive: 10.4%,
Cc1cccc(-n2c(=O)c(C#N)cc3c(=O)n4ccccc4nc32)c1,,"inconclusive [activator, partial curve]"
O=C(O)c1c2ccccc2cc2ccccc12,,"inconclusive [activator, single point]"
CC1=CN2C(=NC(=O)CC2(C)C(=O)N(CC(=O)NC2CCCC2)c2cc(C)cc(C)c2)C=C1 (stereo unspecified),,"inconclusive [activator, partial curve]"
Cc1ccc(NC(=O)c2ccccc2F)nc1,,"inconclusive [activator, partial curve]"
CCOCCCn1c(=NC(=O)c2cccnc2)c(C(=O)OCC)cc2c(=O)n3ccccc3nc21,,"inconclusive [activator, partial curve]"
NC1(C(=O)O)CCc2cc(P(=O)(O)O)ccc21 (stereo unspecified),inactive: 19.3%,
Cc1nc2ccc(S(=O)(=O)Nc3ccc(-c4nc5cccnc5s4)cc3)cc2s1,,"inconclusive [activator, partial curve]"
N#Cc1cc2c(=O)n3ccccc3nc2n(CCCN2CCOCC2)c1=O,,"inconclusive [activator, partial curve]"
CC1CCc2cc(F)ccc2N1C(=O)CCl (stereo unspecified),inactive: -1.84%,
CCCCCN1CN(S(=O)(=O)c2cccs2)c2nc3ccccc3nc21,inactive: -2.24%,
COc1cccc(/C=C2\SC(=O)N(CCC(=O)NNC(=O)c3cccc(Cl)c3)C2=O)c1,inactive: 2.22%,
